Laboratory results reported in the supplement of paper PMC4604168 (melanoma cell lines).
The list shows a part of the results. Repeats are few or missing, and single values can be far off.

Key:
Experiment in all cases: cell count relative to DMSO control; melanoma cells; higher = more viable cells
Details in all cases: library dose: standard library concentration; 72 h
G361 = tested on: G361
IPC-298 = tested on: IPC-298
IST-MEL1 = tested on: IST-MEL1
LB2518-MEL = tested on: LB2518-MEL
LOXIMVI = tested on: LOXIMVI
MEL-HO = tested on: MEL-HO
MZ2-MEL = tested on: MZ2-MEL
MeWo = tested on: MeWo
RPMI7951 = tested on: RPMI7951
RVH-421 = tested on: RVH-421
SkMel28 = tested on: SkMel28
SkMel2 = tested on: SkMel2
SkMel30 = tested on: SkMel30
SkMel5 = tested on: SkMel5
UACC257 = tested on: UACC257
UACC62 = tested on: UACC62
WM115 = tested on: WM115
WM1716 = tested on: WM1716
WM3526 = tested on: WM3526
WM1745 = tested on: WM1745
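Also: cells treated in 1,536-well plates, then fixed and DAPI-stained, with nuclei counted from automated high-throughput microscope images.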

With `C[C@]1(O)C[C@@H](c2nc(-c3ccc4ccc(-c5ccccc5)nc4c3)c3c(N)nccn32)C1` + O=C(O)C(=O)Nc1sc2c(c1C(=O)O)CCNC2 [TCS401] (first compound 2 µM, partner dose 8.33333 µM) the cell count (G361) was 73.4%, the cell count (IPC-298) was 80% and the cell count (IST-MEL1) was 100%. It also gave a cell count (LB2518-MEL) of 85.8%, a cell count (LOXIMVI) of 73.4% and a cell count (MEL-HO) of 75.7%. For the same molecule, the cell count (MZ2-MEL) was 86%, the cell count (MeWo) was 81.5% and the cell count (RPMI7951) was 111%. The cell count (RVH-421) was 113%, the cell count (SkMel28) was 78.3% and the cell count (SkMel2) was 81.4%. It also gave a cell count (SkMel30) of 84.1%, a cell count (SkMel5) of 70.1% and a cell count (UACC257) of 80.8%. It also gave a cell count (UACC62) of 74.6%, a cell count (WM115) of 110% and a cell count (WM1716) of 87.3%. For the same molecule, the cell count (WM3526) was 63%.
For `CCN(CC)CCNC(=O)c1c(C)[nH]c(/C=C2\C(=O)Nc3ccc(F)cc32)c1C` [sunitinib] + c1cc(-c2cnn3cc(-c4ccc(OCCN5CCCCC5)cc4)cnc23)ccn1 [Dorsomorphin] (first compound 2 µM, partner dose 2 µM), the cell count (G361) was 50%, the cell count (IPC-298) was 68.6% and the cell count (IST-MEL1) was 102%. For the same molecule, the cell count (LB2518-MEL) was 74.5%, the cell count (LOXIMVI) was 86.5% and the cell count (MEL-HO) was 77.3%. The cell count (MZ2-MEL) was 84.8%, the cell count (MeWo) was 53.8% and the cell count (RPMI7951) was 64.2%. The cell count (RVH-421) was 83%, the cell count (SkMel28) was 65.5% and the cell count (SkMel2) was 65%. The cell count (SkMel30) was 75.7%, the cell count (SkMel5) was 49.6% and the cell count (UACC257) was 96.8%. The cell count (UACC62) was 53.7%, the cell count (WM115) was 50.8% and the cell count (WM1716) was 71.1%. For the same molecule, the cell count (WM3526) was 46.9%.
For `Cn1cnc2c(F)c(Nc3ccc(Br)cc3Cl)c(C(=O)NOCCO)cc21` [selumetinib] + COc1cc(N2CCC(N3CCN(C)CC3)CC2)ccc1Nc1ncc(Cl)c(Nc2ccccc2S(=O)(=O)C(C)C)n1 [NVP-TAE684] (first compound 0.075 µM, partner dose 0.4 µM), the cell count (G361) was 50.6%, the cell count (IPC-298) was 52.2% and the cell count (IST-MEL1) was 111%. It also gave a cell count (LOXIMVI) of 109%, a cell count (MEL-HO) of 69.6% and a cell count (MeWo) of 55.4%. It also gave a cell count (RPMI7951) of 91.7%, a cell count (RVH-421) of 91% and a cell count (SkMel28) of 45.7%. It also gave a cell count (SkMel2) of 16.2%, a cell count (SkMel30) of 55.3% and a cell count (SkMel5) of 64.9%. The cell count (UACC257) was 88.8%, the cell count (UACC62) was 70.4% and the cell count (WM115) was 67.7%. For the same molecule, the cell count (WM1716) was 71% and the cell count (WM3526) was 49.3%.
Molecule `C[C@]1(O)C[C@@H](c2nc(-c3ccc4ccc(-c5ccccc5)nc4c3)c3c(N)nccn32)C1` + C[C@@H]1CCN(C(=O)CC#N)C[C@@H]1N(C)c1ncnc2[nH]ccc12 [CP690550] (first compound 2 µM, partner dose 5 µM) has a cell count (G361) of 90.9%, a cell count (IPC-298) of 97.1% and a cell count (IST-MEL1) of 105%. For the same molecule, the cell count (LOXIMVI) was 76.2%, the cell count (MEL-HO) was 87% and the cell count (MeWo) was 86.4%. The cell count (RPMI7951) was 74%, the cell count (RVH-421) was 136% and the cell count (SkMel28) was 99.5%. For the same molecule, the cell count (SkMel2) was 75.1%, the cell count (SkMel30) was 106% and the cell count (SkMel5) was 94.8%. The cell count (UACC257) was 83.2%, the cell count (UACC62) was 99.3% and the cell count (WM115) was 99.4%. For the same molecule, the cell count (WM1716) was 98.9%, the cell count (WM1745) was 74.9% and the cell count (WM3526) was 74.2%.
With `CCN(CC)CCNC(=O)c1c(C)[nH]c(/C=C2\C(=O)Nc3ccc(F)cc32)c1C` [sunitinib] + O=C(Nc1ccccc1)c1cc([N+](=O)[O-])ccc1Cl [GW9662] (first compound 2 µM, partner dose 10 µM) the cell count (G361) was 85.2%, the cell count (IPC-298) was 101% and the cell count (IST-MEL1) was 107%. For the same molecule, the cell count (LOXIMVI) was 85.8%, the cell count (MEL-HO) was 102% and the cell count (MeWo) was 57.7%. The cell count (RPMI7951) was 86%, the cell count (RVH-421) was 63.9% and the cell count (SkMel28) was 52.7%. For the same molecule, the cell count (SkMel30) was 56.6%, the cell count (SkMel5) was 51.7% and the cell count (UACC257) was 78.2%. The cell count (UACC62) was 52.2%, the cell count (WM115) was 55.4% and the cell count (WM1716) was 95.7%. The cell count (WM3526) was 75.2%.
For `C[C@]1(O)C[C@@H](c2nc(-c3ccc4ccc(-c5ccccc5)nc4c3)c3c(N)nccn32)C1` + O=C(Nc1ccccc1)c1cc([N+](=O)[O-])ccc1Cl [GW9662] (first compound 2 µM, partner dose 10 µM), the cell count (G361) was 73.5%, the cell count (IPC-298) was 89.3% and the cell count (IST-MEL1) was 98.8%. The cell count (LB2518-MEL) was 74.2%, the cell count (LOXIMVI) was 58.3% and the cell count (MEL-HO) was 73.5%. The cell count (MZ2-MEL) was 79.1%, the cell count (MeWo) was 78.7% and the cell count (RPMI7951) was 92.2%. For the same molecule, the cell count (RVH-421) was 89.7%, the cell count (SkMel28) was 48.5% and the cell count (SkMel2) was 75.7%. For the same molecule, the cell count (SkMel30) was 85.2%, the cell count (SkMel5) was 70.3% and the cell count (UACC257) was 66.4%. For the same molecule, the cell count (UACC62) was 84.2%, the cell count (WM115) was 84.1% and the cell count (WM1716) was 75%. For the same molecule, the cell count (WM3526) was 78.6%.
Work on `Cn1cnc2c(F)c(Nc3ccc(Br)cc3Cl)c(C(=O)NOCCO)cc21` [selumetinib] + C=C(c1ccc(C(=O)O)cc1)c1cc2c(cc1C)C(C)(C)CCC2(C)C [Bexarotene] (first compound 0.075 µM, partner dose 10 µM) yielded a cell count (G361) of 60.8%, a cell count (IPC-298) of 63.9% and a cell count (IST-MEL1) of 76.9%. The cell count (LOXIMVI) was 109%, the cell count (MEL-HO) was 62.8% and the cell count (MeWo) was 81.4%. The cell count (RPMI7951) was 100%, the cell count (RVH-421) was 63.1% and the cell count (SkMel28) was 76.4%. For the same molecule, the cell count (SkMel2) was 53.6%, the cell count (SkMel30) was 56.1% and the cell count (SkMel5) was 78.6%. It also gave a cell count (UACC257) of 98.1%, a cell count (UACC62) of 62.2% and a cell count (WM115) of 79.6%. For the same molecule, the cell count (WM1716) was 82.8%, the cell count (WM1745) was 74.3% and the cell count (WM3526) was 53.9%.
For `COc1cc([C@@H]2c3cc4c(cc3[C@@H](O[C@@H]3O[C@@H]5CO[C@@H](C)O[C@H]5[C@H](O)[C@H]3O)[C@H]3COC(=O)[C@H]23)OCO4)cc(OC)c1O` [etoposide] + O=C(O)[C@@H]1[O][Sb](=[O])([O][Sb]2(=[O])[O][C@H]([C@H](O)CO)[C@H](O)[C@H](C(=O)O)[O]2)[O][C@H]([C@H](O)CO)[C@@H]1O [stibogluconate] (first compound 0.1 µM, partner dose 10 µM), the cell count (G361) was 83.3%, the cell count (IPC-298) was 67.9% and the cell count (IST-MEL1) was 94.4%. It also gave a cell count (LB2518-MEL) of 69.5%, a cell count (MEL-HO) of 88.5% and a cell count (MZ2-MEL) of 69%. It also gave a cell count (MeWo) of 78%, a cell count (RPMI7951) of 79.6% and a cell count (RVH-421) of 102%. The cell count (SkMel28) was 81%, the cell count (SkMel2) was 58.4% and the cell count (SkMel30) was 91%. For the same molecule, the cell count (SkMel5) was 73.5%, the cell count (UACC257) was 79.7% and the cell count (UACC62) was 68.8%. It also gave a cell count (WM115) of 94.8%, a cell count (WM1716) of 66.8% and a cell count (WM1745) of 85.2%. For the same molecule, the cell count (WM3526) was 94.1%.
`CCN(CC)CCNC(=O)c1c(C)[nH]c(/C=C2\C(=O)Nc3ccc(F)cc32)c1C` [sunitinib] + COc1ccc(-c2ccc3c(N4CCOCC4)nc(N4C[C@@H](C)O[C@@H](C)C4)nc3n2)cc1CO [KU0063794] (first compound 2 µM, partner dose 0.1 µM) gave a cell count (G361) of 63%, a cell count (IPC-298) of 65% and a cell count (IST-MEL1) of 77.9%. For the same molecule, the cell count (LB2518-MEL) was 54.9%, the cell count (LOXIMVI) was 106% and the cell count (MEL-HO) was 73.5%. The cell count (MZ2-MEL) was 80.5%, the cell count (MeWo) was 50.6% and the cell count (RPMI7951) was 66.6%. It also gave a cell count (RVH-421) of 81.6%, a cell count (SkMel28) of 57.5% and a cell count (SkMel2) of 61.4%. It also gave a cell count (SkMel30) of 61.5%, a cell count (SkMel5) of 34.2% and a cell count (UACC257) of 85.7%. The cell count (UACC62) was 67%, the cell count (WM115) was 46% and the cell count (WM1716) was 84.5%. It also gave a cell count (WM3526) of 55.7%.
